# Experimental data as given in publication PMC10668032.
# This is one part of the list. At the low end of the ranking the order means little.
# Target: SIX1 homeodomain (reference allele) (UniProt Q15475)
# Test: universal protein binding microarray
# Details: Universal all-10-mer PBM (8x60K, AMADID 030236), 300 nM GST-tagged protein, Alexa Fluor 488 anti-GST; buffer, salt, pH and temperature not stated; high values mean tight binding; most listed sequences are background and not binding sites; double strand, one strand shown
row,Sequence,binding signal [E-score]
1,AAGGTCGT,-0.197
2,GAGGATGC,0.0652
3,CACCAGCA,0.0581
4,ATCCGTTA,0.283
5,CTGCTTTC,-0.0661
6,CTTAAACA,-0.158
7,CGCGGCGC,0.0414
8,AAGAGGAC,-0.145
9,CGGTTAAA,-0.0979
10,ACCAGGGA,0.0267
11,ATCCCGTA,0.342
12,AATTGATC,0.291
13,GCCAAAAA,-0.161
14,ACAGAGGA,0.0638
15,AGAAAACC,-0.131
16,AAGTGTTG,-0.152
17,AGACTACG,-0.17
18,GTCAAACA,-0.0981
19,GCTGCTAA,-0.064
20,AACTCCGC,-0.234
21,GGACACCA,0.386
22,GAAGTAGC,-0.165
23,GATTAACA,0.106
24,CTCTACAC,0.163
25,CTTAGGAC,-0.176

row,Sequence,binding signal [E-score]
1,GGGGACCA,-0.151
2,CATGGAAC,-0.254
3,AGAGATAA,0.13
4,GTATCCGA,0.426
5,AGTGGAAG,-0.0264
6,ACCTAGGC,-0.229
7,AGAACGAT,0.18
8,ATCAAACG,-0.0343
9,CCTCGAAC,-0.163
10,ACTAGCAA,-0.00466
11,ATTCCAAA,0.0345
12,AAACTGAC,-0.252
13,CAAATCGC,-0.242
14,GATCGGCC,0.255
15,ACTGAAAT,-0.234
16,AGTAGACT,-0.136
17,CGCGCGAG,-0.0823
18,ACCTCGAG,0.0888
19,ATATGCAC,0.198
20,TAGGACCA,-0.08
21,GCGGGCTA,-0.0522
22,GCATTACC,-0.0175
23,GCGTATCC,0.369
24,ATCATGTA,0.257
25,TGGACTAA,-0.208

row,Sequence,binding signal [E-score]
1,AACTCCCA,-0.0666
2,ACATAAAA,-0.008
3,CACTGCAC,0.0751
4,ACGGCGAG,-0.071
5,AAGTTCAC,-0.211
6,CAGTCGGG,0.0175
7,GCTGGCAC,-0.137
8,AAAGGTCT,-0.185
9,AGTAGTCA,-0.147
10,GGCGTAGA,-0.177
11,ATGGTCAA,-0.0625
12,ACGGCTCT,0.0166
13,CACAGCTG,-0.0844
14,CCCAAATA,-0.0212
15,CTTCCGTC,-0.151
16,GCGCTCCC,-0.0596
17,AGCCCGGC,-0.116
18,CTCTCCGA,0.0387
19,CAAGGTAA,-0.0994
20,ACTCATGA,0.0933
21,ATGCTGCA,-0.164
22,ACGAATCA,-0.0422
23,GCAAAGAC,-0.283
24,GACCTATA,0.0813
25,CCGCGGAA,-0.05

row,Sequence,binding signal [E-score]
1,CGTGGGGC,-0.0255
2,GCGAAGAC,-0.175
3,ACGAGTTC,-0.125
4,GGTGCGAA,-0.0168
5,CAAGGGAA,-0.151
6,GCTAGGCA,-0.21
7,GTTCCCAA,-0.0489
8,GTAAGTGA,0.149
9,CATTGGCG,-0.197
10,ATCAGCCG,0.131
11,CGCTTCGA,-0.0359
12,ACCTAAGT,-0.00969
13,ACGGACTA,-0.0194
14,ACCCTCAC,-0.0323
15,AATACCGT,0.318
16,GTTCTATA,0.139
17,GGCGCCAA,-0.241
18,AATGTTTA,-0.215
19,AAATACCC,0.2
20,AGAAGCTC,-0.125
21,CGTGCGGA,-0.0228
22,GCATGGAA,-0.218
23,AAACTTTA,-0.0735
24,CTTATTAA,-0.099
25,AGGAGAAC,-0.0661

row,Sequence,binding signal [E-score]
1,AAACCTTC,-0.0706
2,AATTGGAT,0.245
3,GGACGACC,-0.126
4,CCGCTGTA,-0.018
5,GGTAGTAC,-0.0291
6,AAAAGGGA,-0.0765
7,AAGGGCAA,-0.113
8,CCCAGCAA,-0.0549
9,ATGTCCTA,0.01
10,AATTGCAT,-0.171
11,TATCATCA,0.412
12,CAGTACTG,-0.17
13,ACAAGTTA,-0.0731
14,AAGATATT,0.214
15,GGACGGAC,-0.171
16,GATGGGCC,-0.169
17,CTAATAAC,-0.0636
18,CCCTGCGA,0.0553
19,GTTCACAA,-0.167
20,ACCCTAAT,-0.0309
21,ATACCTAA,0.273
22,AGAGAAAG,-0.109
23,AAAAACCG,0.0268
24,GCTGGTAC,-0.0625
25,GATAGTCC,0.24

row,Sequence,binding signal [E-score]
1,GACGAAGA,-0.0867
2,CCATGGCG,0.137
3,CCGAGTGC,0.0163
4,ACCGATAG,0.352
5,ACCGATCT,0.251
6,AGCGCTAC,-0.205
7,CTATTGTC,-0.201
8,CGAGTTGA,-0.0799
9,ACTATTGA,0.061
10,GGTCAAAC,-0.287
11,ATTTTAAC,-0.2
12,CTTATCAA,0.0875
13,CCGTACTC,-0.128
14,CAAGGATG,-0.0235
15,GGTAACTA,0.159
16,ACAGCGGG,-0.149
17,GCGAGCAC,-0.111
18,AAGGCTTC,-0.115
19,AAACGTCT,-0.0863
20,AGCTCCGC,-0.0815
21,GATATCCC,0.487
22,CGTCCGTC,-0.272
23,ATAACGAC,0.0188
24,ACTCTCAT,0.0192
25,ATTTCGAC,-0.32

row,Sequence,binding signal [E-score]
1,CCAGCGTA,-0.0796
2,AACTGCAA,-0.232
3,CTTCCCGC,-0.135
4,AGGATTTG,-0.0657
5,ACCCAACC,0.0305
6,CTATGGGC,-0.218
7,AATGCTAC,0.0507
8,AGCCCTGG,-0.101
9,ATTTCTGG,-0.172
10,AAGAAGCC,-0.0753
11,CTGAGGTA,0.0822
12,CCTTCCTA,-0.153
13,ATAGAGGA,0.153
14,ATCTGCGA,0.175
15,CACGGCGA,-0.0142
16,CAGCGGGC,-0.188
17,TCGCAGCA,-0.0755
18,AACTTTAA,-0.131
19,CCCATGAG,0.0671
20,CGAGGGGA,0.164
21,TCTAGACA,0.065
22,ACCCGGAG,0.194
